Among the data in paper PMC6443961 are Kd values, retold here.

The assay deals with recombinant enolase of S. pneumoniae serotype 2 (ATCC 11733) (Streptococcus pneumoniae serotype 2 (ATCC 11733)) (UniProt Q97QS2). In words: SPR; rEno immobilised by amine coupling on CM5 chip (BIAcore T200), VWF or A domains as analyte, PBS pH 7.4 with 0.05% Tween 20, 25°C, 10 μl/min, 1:1 Langmuir model. (In SPR one partner is held on a chip, and binding of the other changes the refractive index at the surface.)
UniProt Q97QS2, sequence (Q97QS2 whole entry): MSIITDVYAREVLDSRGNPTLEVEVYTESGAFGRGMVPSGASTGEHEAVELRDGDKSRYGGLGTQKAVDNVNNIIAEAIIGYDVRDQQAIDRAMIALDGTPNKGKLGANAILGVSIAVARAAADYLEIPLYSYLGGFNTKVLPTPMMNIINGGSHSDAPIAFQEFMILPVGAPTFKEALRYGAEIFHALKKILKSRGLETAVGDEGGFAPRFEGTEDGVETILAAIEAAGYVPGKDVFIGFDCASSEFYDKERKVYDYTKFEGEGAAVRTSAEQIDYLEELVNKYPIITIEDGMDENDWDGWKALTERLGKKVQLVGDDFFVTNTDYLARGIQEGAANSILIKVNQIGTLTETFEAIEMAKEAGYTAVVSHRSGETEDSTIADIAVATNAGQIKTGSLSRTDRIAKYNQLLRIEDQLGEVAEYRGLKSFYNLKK

On to “human plasma von Willebrand factor (a stretch of the chain, chain not printed) (natural protein; other documents disagree on this pair)”, for which the Kd (commonly the constant that tells how readily two partners part at equilibrium) was found to be 5.36 nM.
